{"source": "patent US8653242B2", "about": "“Therapeutic antibodies against flagellated Pseudomonas aeruginosa” (priority 2010, dated 2014)", "molecules": {"B1": {"name": "LST-008: fully human recombinant mAb: VH and VL of LST-007 linked to human IgG1 constant domains; binds flagellin type B (antibody)", "heavy": "QVRLVQSGTEVKKPGASVRVSCKASGYTFSNYYMYWVRQAPGQGLEWMAMINPSGGSTRYAQKFQGRVTMTRDTSTSTVYMELSSLRSEDTAVYYCARADSGSYFGYWGQGTLVTVSS[human IgG1 constant region left out]", "light": "DIQLTQSPSFLSASVGDRVPITCRASQGISTHLAWYQQKPGKAPKLLIYAASTLQSGVPSRFSGSGSGTEFTLTISSLQPEDSATYYCQQLKSYPLTFGGGTKVEIKRTVAAPSVFIFPPSDEQLKSGTASVVCLLNNFYPREAKVQWKVDNALQSGNSQESVTEQDSKDSTYSLSSTLTLSKADYEKHKVYACEVTHQGLSSPVTKSFNRGEC"}}, "key": {"[1]": {"target": "P. aeruginosa flagellin type B (Pseudomonas aeruginosa, UniProt P72151)", "sequence (P72151 whole entry)": "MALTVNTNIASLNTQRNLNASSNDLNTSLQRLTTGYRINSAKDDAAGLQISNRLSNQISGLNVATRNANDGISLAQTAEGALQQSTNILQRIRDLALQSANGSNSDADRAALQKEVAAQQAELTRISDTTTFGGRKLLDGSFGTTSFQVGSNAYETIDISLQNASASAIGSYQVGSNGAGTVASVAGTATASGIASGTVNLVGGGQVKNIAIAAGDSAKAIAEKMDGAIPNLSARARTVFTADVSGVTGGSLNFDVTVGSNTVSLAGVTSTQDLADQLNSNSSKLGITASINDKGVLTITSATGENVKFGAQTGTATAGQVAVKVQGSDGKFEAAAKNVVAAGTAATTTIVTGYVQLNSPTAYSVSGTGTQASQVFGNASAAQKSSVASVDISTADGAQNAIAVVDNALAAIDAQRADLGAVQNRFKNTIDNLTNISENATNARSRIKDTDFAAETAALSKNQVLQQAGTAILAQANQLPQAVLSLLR", "test": "ELISA of LST-008 on recombinant flagellin type B", "type": "binding", "details": "250 ng/well antigen"}, "[2]": {"system": "P. Aeruginosa strains harboring flagellin type B (Pa01, Ka01, Ka02, Ka03, Ka04, 25619, NCTC 10662)", "test": "Whole-bacteria binding ELISA, flagellin type B strains", "details": "LST-007 supernatant, LST-008 0.5 μg/ml"}, "[3]": {"system": "P. Aeruginosa flagellin type A strain 27853", "details": "ELISA, LST-007 supernatant, LST-008 0.5 μg/ml"}}}
{"molecule": "B1", "values": [{"measurement": "EC50 of binding to recombinant flagellin type B", "setting": "[1]", "value": "~0.01", "unit": "µg/mL"}, {"measurement": "binding to whole bacteria harboring flagellin type B", "setting": "[2]", "value": "bound all strains known to harbor flagellin type B"}, {"measurement": "binding to whole bacteria harboring flagellin type A", "setting": "[3]", "value": "not flagellin type A"}]}
